# PubChem BioAssay AID1508642 (National Center for Advancing Translational Sciences (NCATS), 2021)
# Among all 43,000 compounds or so, about 200 (0.47%) were called active. Roughly 12% stayed inconclusive and do not appear here. Calls come from the whole dose curve; as a rule, active = well fitted cell-killing curve with a large enough effect; inconclusive = small, poorly fitted or top-dose-only effect, or effect the other way; inactive = flat fitted curve, though single readings scatter. Some of the results follow.
# Experiment: Cell viability qHTS assay in S16 Pmp22-F2sN cells; note: nearly all actives have a fitted effect of over 65% in size
# Settings: S16 Pmp22-F2sN Schwann cells (luciferase reporters placed in the Pmp22 gene) viability, CellTiter-Glo, 24 h; series mostly up to 57.5 µM; activity change, negative = cytotoxicity: at the top concentration
# In short: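 Seed 500-1,000 S16 Pmp22-F2sN cells per well in phenol-red-free DMEM with 10% heat-inactivated FBS; pin-add 23 nL compound; incubate 24 h at 37C; add CellTiter-Glo, wait 15 min protected from light; read luminescence.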
# % is set by controls: 0 for no effect and ±100 for the full control effect.
row,SMILES,"activity change, negative = cytotoxicity"
1,COc1cc(NS(=O)(=O)c2c(C(=O)N3CCCCC3)c(C)n(C)c2C)cc(OC)c1OC,inactive: -6.99%
2,CCC(C)c1ccccc1OCC(=O)Nc1ccc(S(=O)(=O)Nc2cc(C)on2)cc1 (configuration not stated),inactive: 15.7%
3,CC1CCc2c(sc3nnn(CC(=O)Nc4c(C(C)C)cccc4C(C)C)c(=O)c23)C1 (configuration not stated),inactive: 2.63%
4,O=C(Nc1cccc2cccnc12)c1ccc(-c2cccc(Cl)c2)o1,inactive: 1.88%
5,COc1ccc(-c2cc3ncc(C(=O)c4cc([N+](=O)[O-])ccc4O)cn3n2)cc1,inactive: -9.31%
6,CC(=O)c1ccc(NC(=O)c2cc3sccc3n2Cc2ccc(Cl)cc2)cc1,inactive: 14.1%
7,CCOCCCNC(=O)C(=O)Nc1c2c(nn1-c1ccccc1)CSC2,inactive: -14.8%
8,O=C(COc1ccc(Cl)cc1)NCC(c1ccco1)S(=O)(=O)c1ccc(F)cc1 (configuration not stated),inactive: -19.2%
9,CCN(CC)S(=O)(=O)c1ccc(C(=O)NC2CC(=O)N(c3ccc(OC)c(OC)c3)C2)cc1 (configuration not stated),inactive: 1.15%
10,O=C(c1ccccc1Cl)N1CCC(c2nc3ccccc3s2)CC1,inactive: -1.33%
11,Cc1cccc(NC(=O)C2CCCN(S(=O)(=O)c3ccc4c(c3)CCCC(=O)N4)C2)c1 (configuration not stated),inactive: 15.1%
12,COCCCn1c(SCC(=O)Nc2ccc(F)cc2)nc2c(sc3ccccc32)c1=O,inactive: 5.13%
13,COc1ccc(CNC(=O)c2cc3cccc4c3n2CC(C)S4)cc1OC (configuration not stated),inactive: 4.27%
14,COCCCn1c(=O)c2sccc2n2c(CCCC(=O)Nc3cccc(OC)c3)nnc12,inactive: 1.84%
15,Cc1ccc(CNS(=O)(=O)c2ccc3[nH]c4c(c3c2)CCCCC4)cc1,inactive: 0.12%
16,CCOC(=O)N1CCN(S(=O)(=O)N2CCCC(C(=O)NCc3cc(Br)ccc3OC)C2)CC1 (configuration not stated),inactive: -12.7%
17,Cc1cc(=O)c2cc(C(=O)Nc3ccc(F)cc3)ccc2[nH]1,inactive: 9.75%
18,CCN1CCc2nc3sc(C(=O)Nc4ccccc4OC(F)(F)F)c(N)c3cc2C1,inactive: -7.74%
19,COc1cccc(Nc2nc3c(S(=O)(=O)c4cc(C)ccc4C)nnn3c3ccsc23)c1,inactive: 18.3%
20,O=C(CN1c2ccc(Br)cc2-c2ccccc2S1(=O)=O)N1CCCCC1,inactive: 3.33%
21,CC(=O)Nc1c(C)nn(-c2ccccc2)c1N1CCC(C(=O)Nc2ccccc2C(F)(F)F)CC1,inactive: 16.8%
22,COc1ccc(C)cc1-n1nnc(S(=O)(=O)c2ccc(C)cc2)c1C,inactive: 9.81%
23,O=C(Cn1c(-c2cccs2)cc2cc(F)ccc21)N1CCN(c2ccccc2)CC1,inactive: -3.74%
24,COc1ccc(CNc2oc(/C=C/c3cc(OC)c(OC)c(OC)c3)nc2C#N)cc1,inactive: -25.3%
25,CCOc1ccc(Nc2oc(/C=C/c3ccc(OC)c(OC)c3)nc2C#N)cc1,inactive: -14.3%
26,Cc1cccn2c(=O)c(C(=O)NC(C)c3ccccc3)c(O)nc12 (configuration not stated),inactive: -15.7%
27,COc1ccc(NC(=O)C(NS(=O)(=O)c2cccc3nsnc23)C(C)C)cc1OC (configuration not stated),inactive: -1.88%
